According to publication PMC12136788:
Some of the results follow.

T1: UNK ZnF1-3 (human, UniProt Q9C0B0 31-174)
T1 sequence: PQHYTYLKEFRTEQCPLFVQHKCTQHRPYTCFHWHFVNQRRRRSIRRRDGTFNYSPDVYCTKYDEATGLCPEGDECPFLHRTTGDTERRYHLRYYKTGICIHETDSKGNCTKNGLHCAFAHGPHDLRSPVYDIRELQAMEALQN

B1: 37057428_37059106_7932_CDS_ENSG00000164190_ENST00000448238|human|control|control (ssRNA)
RNA: GGGAGUUCUACAGUCCGACGAUCAUCUACACGUUUCCGUGACUUCCGAGGCCUGGAAACUUCUUCUUCACUGUCGCUUGACUCAUUUUCCUUACUAGGUGAUGAUUUUCUCUCUUUCCUUUUGUCCUUUACCAUAGACUCCUUCAACAGAGGAUUGAGCAUCA
B2: chr1:114949673:114949674:-_ENSG00000197323_ENST00000358465|hu_mus|FALSE|FALSE (ssRNA)
RNA: GGGAGUUCUACAGUCCGACGAUCGCAUAUCUCUUCUUCAGUCCCAGGUUCCUGCUUGACCUUCACCUGAUCAGACUUGAAACUAUGAGCACUUUUCUCAGCAGUUCUUCCUGAUGAUCCGCAGCUGCCUCGACUGCCAGUACUCAACAGAGGAUUGAGCAUCA
B3: chr2:216986912:216986913:+_ENSG00000079246_ENST00000392132|hu_mus|motif|central (ssRNA)
RNA: GGGAGUUCUACAGUCCGACGAUCCAGUUGUCGUAGACUCUCACUGAAGGAAUAAAUUUCAUCCAGCCCGUCUUCGCCUUCGGAGGACAGCAUCACCCUUGUCACCAUGCGGAUGCCUUCCUUUUGCUGCUCAGUAAGUCCUUUCAACAGAGGAUUGAGCAUCA
B4: chr15:31520727:31520728:-_ENSMUSG00000022234_ENSMUST00000022842|mus_hu|FALSE|FALSE (ssRNA)
RNA: GGGAGUUCUACAGUCCGACGAUCUCUUCAUUCUUCAGAUUCUCCAGGCUUACGAAUGUCAUCAAUCUUCAAAAUCAUUCUAACCAUUUGUGUUGCAAGAGAUAUCUGUUGCUUUUUGCCAAUCAAGGUUUCUAUGACAUGCUGCAACAGAGGAUUGAGCAUCA
B5: chr2:179515052:179515053:+_ENSMUSG00000000305_ENSMUST00000000314|mus_hu|mus_mus_mus_hu_False|78_98 (ssRNA)
RNA: GGGAGUUCUACAGUCCGACGAUCGCUGUCCCAUGCAGUGACGGUAAACGCCACCUGCUCUGAGGGGACCUGCAGCUCCCGGGUGGCGAAGACUGUCCCAUCUGCCCCAACUUUGAAGUCCAUGCUGUUGGUCUCAUAUUGUGUCAACAGAGGAUUGAGCAUCA
B6: chr3:148802587:148802588:-_ENSG00000071794_ENST00000310053|hu_mus|hu_hu_hu_mus_False|18_38 (ssRNA)
RNA: GGGAGUUCUACAGUCCGACGAUCUCCAACAACUUGUCCUCUCAUAGUUCCAAAUAAAACCAAAUCUUGCUCUUCAUCACUCGUUAGGAAGUCAUCUGGAGGGAUAAUGUCUUGGAAUUCAAAACGUGGCAAGAAAGUUGAGUACAACAGAGGAUUGAGCAUCA
B7: chr8:104447970:104447971:+_ENSG00000164934_ENST00000297579|hu_hu|hu_hu_hu_mus_False|18_58 (ssRNA)
RNA: GGGAGUUCUACAGUCCGACGAUCAUACACUUCCCUGCUUCGGCUCUUGUCCACAGGAAAGAUUCUAAUAGACUUAUCGAAACUAGCAGACACAAAUUCCUUCCCAGUGGGAGAGUAAUCCACAUCAAGUACUGCAGACACGUGCAACAGAGGAUUGAGCAUCA
B8: 109010965_109011340_3848_CDS_ENSMUSG00000053646_ENSMUST00000072093|mouse|control|control (ssRNA)
RNA: GGGAGUUCUACAGUCCGACGAUCUAGCUGCUCAGACUGCUGCUCCAGGAGCAGGUGGCAAGGCUGGUCUCCAACCACCACACGGAUGUCCUCUAGCCGUCCAGUCAGGAGCUUAGAACCAUGCAGGGUAAGGCGGGUACCUCCCAACAGAGGAUUGAGCAUCA
B9: chr18:38101097:38101098:-_ENSMUSG00000024454_ENSMUST00000043498|mus_mus|motif|central (ssRNA)
RNA: GGGAGUUCUACAGUCCGACGAUCGGUGCUGACAUCUGGAUGGAGUGUGAAAUCUGGGGCAAAGUACUCGAAGUAUUCACGGUAGGGAAGUUCCUCACUAAUGGCCUCUUCUACCAGCAGAGAUGUUUCAUAUGUCCAACACCGCAACAGAGGAUUGAGCAUCA
B10: chrX:7458662:7458663:+_ENSMUSG00000031155_ENSMUST00000033495|mus_mus|FALSE|FALSE (ssRNA)
RNA: GGGAGUUCUACAGUCCGACGAUCAAGCAGGGCGCCGGAACCAAAAUCAAUGAGUUUAAUGGAACCCCGGCAUAGGUCGAUCAGGAUGUUCUCAUCCUUGAUAUCCCGAUGGACAACUCCACGGGCGUGGCAGUGCUGGACAGCCAACAGAGGAUUGAGCAUCA
B11: chrX:101152592:101152593:-_ENSMUSG00000056537_ENSMUST00000070705|mus_mus|FALSE|FALSE (ssRNA)
RNA: GGGAGUUCUACAGUCCGACGAUCUUAAGUCUGCAGUAUGACAUCGUACAUAGGGAAAAAGCUUCUUCCUAAAAGAUAGCUAUUAAUAAUCAAACCAGAUUUCAUGACUGACCUUUCAAGGUCUCUUUCUGCAUUAAACAAGGUCAACAGAGGAUUGAGCAUCA
B12: chr16:13130331:13130332:+_ENSMUSG00000022545_ENSMUST00000023206|mus_mus|motif|central (ssRNA)
RNA: GGGAGUUCUACAGUCCGACGAUCCUUUCUAACAUUUACCCACACUUCUUCAGCUUUGCCAUCCUUCUCAAAAGUUUUCCGGUAAAGUCGCAGCAGGAAGGUUUCUGCUCCGGCGGACAGGUAGUCUCUCAGCUGGCAGCACGUCAACAGAGGAUUGAGCAUCA
B13: 26441060_26448423_608_CDS_ENSG00000175087_ENST00000374271|human|control|control (ssRNA)
RNA: GGGAGUUCUACAGUCCGACGAUCCAUAUCUCCUCCGUCACAAAAAUCCAUCACAAACCACAAAUAAUAGGCGCUUCUGGGAUCAAAGGCAAUUUCUCCUUUUAAUGAAGUUUCUACAAGCUGUAAAUAAAGGGAAGAAUUAGACAACAGAGGAUUGAGCAUCA
B14: 156294498_156296098_474_CDS_ENSG00000164114_ENST00000311277|human|control|control (ssRNA)
RNA: GGGAGUUCUACAGUCCGACGAUCCAAUAGUUUUGAAGGAUUCUUUUCUUCAUCAUCUGAUAUAUGAAAGUCAUUCAUUUUUUUAUUAACUGAAUUUUCAUCUGCUGAAGUGUCAGAAAAAUCACCUAAAGAAACAAUCUCAUCCAACAGAGGAUUGAGCAUCA
B15: chr1:88750987:88750988:+_ENSMUSG00000053333_ENSMUST00000065694|mus_hu|FALSE|FALSE (ssRNA)
RNA: GGGAGUUCUACAGUCCGACGAUCCGAUAAAGCUCUUGUGUCUUGUGAAAUGCAGGUGGUCUCAUCUUUUGUAACCGGUGCAUCACCAUCCUCUCUUCCUUUCUCAGAAACACAAACUGAGAGUUUCUUAACACCAUCAACCAGCAACAGAGGAUUGAGCAUCA
B16: 155408179_155408299_6185_CDS_ENSG00000116539_ENST00000392403|human|control|control (ssRNA)
RNA: GGGAGUUCUACAGUCCGACGAUCUUCCAAUAGCCAACCUUUUCUCUUCAACCCCUUUUUAUGUUCUGGGUUCAGAUUUACACUCUGAACAACAGCCUCAAUUACAUCUGUAACUGUGUCAGGACUGAGGUGCAGUGCUGCUCCCAACAGAGGAUUGAGCAUCA
B17: 22956548_22958262_2036_CDS_ENSG00000068793_ENST00000560848|human|control|control (ssRNA)
RNA: GGGAGUUCUACAGUCCGACGAUCCCUCCUGCCCAUGGUCAGCUCCAGGAAGAACUCUCGGAACCACAGCUGCGAAAGGUCACAGCACUGCUGCAGCGUUUCACUGAAAUUUAUCAAGUGAGUGUAGAAGAAUGACUCUCGAUGCAACAGAGGAUUGAGCAUCA
B18: chr1:151373778:151373779:+_ENSG00000159377_ENST00000290541|hu_hu|motif|central (ssRNA)
RNA: GGGAGUUCUACAGUCCGACGAUCAAACCGGUUGUAAGAACGGGCAUCUCGGUAGUACAGCACUCGCAUGCAGCGUUCGGCGGAGUCGCGGGCCUCGGUCUGGCUUAGCACUGGCUGCUUCUCCAGAACUUCUCGCAGCAGAGGCAACAGAGGAUUGAGCAUCA
B19: 108059836_108059956_598_CDS_ENSG00000149308_ENST00000278612|human|control|control (ssRNA)
RNA: GGGAGUUCUACAGUCCGACGAUCUACAGUAUCUUGUGACUGUGAGUGGUUGACCACUACAAAAUAUGACCUCGAUGGAUCUGAAAUUUGGCCACUUGGUCGAGUAACCUGUGUACCUGUGGAAGGAGGAGUGGUAAACUGUCCCAACAGAGGAUUGAGCAUCA
B20: 68058664_68058876_2676_CDS_ENSMUSG00000037685_ENSMUST00000037380|mouse|control|control (ssRNA)
RNA: GGGAGUUCUACAGUCCGACGAUCUUUGAACUGAGCGAUGGAGUAAUCUGAAGAGUUGGCUGCCUGCAAACCUUCAUUGCCGCUUAUCCCAACACCCACAUGGGCCGUCUGGAUCAUGCUGACGUCAUUUGCUCCAUCCCCGAUCAACAGAGGAUUGAGCAUCA
B21: chr9:53430067:53430068:-_ENSMUSG00000032030_ENSMUST00000166367|mus_mus|motif|central (ssRNA)
RNA: GGGAGUUCUACAGUCCGACGAUCGGGUGAGUUGACUUGAGGGUCAUACAACAAAACUUGCCGUUUGAGCUUGGGAAAAGCGGCGGAAGACCAUAAAGUCCUUCUAAGUUCAGCAUCUGGGAGUUCCGUUGCAAGUUUUAGAUUCAACAGAGGAUUGAGCAUCA
B22: chr10:112361861:112361862:+_ENSG00000108055_ENST00000361804|hu_hu|motif|central (ssRNA)
RNA: GGGAGUUCUACAGUCCGACGAUCAAUAGCUUCAUAUUUCCGAAGUUCAAGUACAUUCAUCAGUUCCAUGAUUGAUUUGUAACCCCGGUCUAACUCUUCUUGACGCUUUAUUAACUUUUCUUUCUGCUCGGAGAAAUUUACAAACAACAGAGGAUUGAGCAUCA

Each binder was assayed against T1, UNK ZnF1-3 (assay: nsRBNS (natural sequence RNA bind-n-seq); RBNS binding buffer (assumed for nsRBNS): 25 mM Tris pH 7.5, 150 mM KCl, 3 mM MgCl2, 0.01% Triton X-100, 500 ug/ml BSA, 20 U/ml SUPERase-In, 4 C; UNK is unkempt and MSI1 is Musashi-1; names of the RNAs are library labels; protein concentration not given here; high values mean tight binding).

Binder	binding signal
B1	0.274 enrichment R
B2	0.767 enrichment R
B3	1.5 enrichment R
B4	0.776 enrichment R
B5	0.753 enrichment R
B6	1.32 enrichment R
B7	0.785 enrichment R
B8	1.02 enrichment R
B9	1.45 enrichment R
B10	1.04 enrichment R
B11	0.696 enrichment R
B12	0.512 enrichment R
B13	1.68 enrichment R
B14	0.616 enrichment R
B15	0.774 enrichment R
B16	0.788 enrichment R
B17	1.04 enrichment R
B18	1.2 enrichment R
B19	0.754 enrichment R
B20	0.781 enrichment R
B21	1.31 enrichment R
B22	0.602 enrichment R
